{"sequences": {"note": "Amino acid sequences for entries named in this document (tags omitted).", "UniProt P11978": "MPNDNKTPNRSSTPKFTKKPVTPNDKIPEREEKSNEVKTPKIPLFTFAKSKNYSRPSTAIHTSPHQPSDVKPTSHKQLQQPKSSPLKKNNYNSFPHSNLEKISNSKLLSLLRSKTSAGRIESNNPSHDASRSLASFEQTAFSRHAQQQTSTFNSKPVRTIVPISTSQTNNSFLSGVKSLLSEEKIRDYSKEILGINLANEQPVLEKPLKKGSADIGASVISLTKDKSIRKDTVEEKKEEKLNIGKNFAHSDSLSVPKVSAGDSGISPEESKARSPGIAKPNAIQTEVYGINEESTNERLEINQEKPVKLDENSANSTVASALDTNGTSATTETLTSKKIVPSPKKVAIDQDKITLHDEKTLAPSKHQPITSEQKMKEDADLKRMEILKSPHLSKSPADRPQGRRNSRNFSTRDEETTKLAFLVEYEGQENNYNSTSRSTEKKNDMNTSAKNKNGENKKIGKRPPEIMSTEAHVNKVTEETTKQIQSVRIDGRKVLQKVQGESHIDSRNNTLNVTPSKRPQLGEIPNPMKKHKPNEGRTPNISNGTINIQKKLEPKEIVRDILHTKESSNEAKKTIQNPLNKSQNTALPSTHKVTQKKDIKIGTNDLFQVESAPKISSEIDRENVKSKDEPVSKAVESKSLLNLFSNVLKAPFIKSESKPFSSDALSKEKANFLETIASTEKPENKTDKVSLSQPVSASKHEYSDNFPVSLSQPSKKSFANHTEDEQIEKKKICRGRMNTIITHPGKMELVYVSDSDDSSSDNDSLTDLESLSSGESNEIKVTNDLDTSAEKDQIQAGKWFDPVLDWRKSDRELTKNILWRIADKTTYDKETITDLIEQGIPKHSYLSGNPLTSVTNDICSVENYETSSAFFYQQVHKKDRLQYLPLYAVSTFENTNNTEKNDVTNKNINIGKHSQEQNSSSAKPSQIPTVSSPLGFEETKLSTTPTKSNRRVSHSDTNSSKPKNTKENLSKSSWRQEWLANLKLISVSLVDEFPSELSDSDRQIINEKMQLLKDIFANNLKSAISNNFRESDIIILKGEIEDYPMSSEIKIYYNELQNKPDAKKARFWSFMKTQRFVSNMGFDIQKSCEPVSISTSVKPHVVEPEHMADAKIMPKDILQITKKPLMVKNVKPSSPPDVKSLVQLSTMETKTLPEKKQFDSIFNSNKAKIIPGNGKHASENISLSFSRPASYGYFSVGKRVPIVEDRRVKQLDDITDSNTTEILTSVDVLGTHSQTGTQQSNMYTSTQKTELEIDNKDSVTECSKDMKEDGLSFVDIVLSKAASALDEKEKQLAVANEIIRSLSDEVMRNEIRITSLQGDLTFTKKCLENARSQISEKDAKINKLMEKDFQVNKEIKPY", "UniProt P10659": "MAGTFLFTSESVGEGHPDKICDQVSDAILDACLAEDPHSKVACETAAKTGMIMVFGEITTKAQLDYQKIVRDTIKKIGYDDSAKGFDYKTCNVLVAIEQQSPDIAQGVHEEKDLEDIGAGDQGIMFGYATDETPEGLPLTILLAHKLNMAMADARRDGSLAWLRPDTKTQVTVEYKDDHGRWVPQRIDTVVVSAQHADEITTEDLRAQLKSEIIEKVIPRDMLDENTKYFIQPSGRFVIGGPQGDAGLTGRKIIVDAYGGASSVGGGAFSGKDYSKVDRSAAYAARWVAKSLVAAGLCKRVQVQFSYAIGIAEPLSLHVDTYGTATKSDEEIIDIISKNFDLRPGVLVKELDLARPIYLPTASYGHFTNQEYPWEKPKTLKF", "UniProt P06701": "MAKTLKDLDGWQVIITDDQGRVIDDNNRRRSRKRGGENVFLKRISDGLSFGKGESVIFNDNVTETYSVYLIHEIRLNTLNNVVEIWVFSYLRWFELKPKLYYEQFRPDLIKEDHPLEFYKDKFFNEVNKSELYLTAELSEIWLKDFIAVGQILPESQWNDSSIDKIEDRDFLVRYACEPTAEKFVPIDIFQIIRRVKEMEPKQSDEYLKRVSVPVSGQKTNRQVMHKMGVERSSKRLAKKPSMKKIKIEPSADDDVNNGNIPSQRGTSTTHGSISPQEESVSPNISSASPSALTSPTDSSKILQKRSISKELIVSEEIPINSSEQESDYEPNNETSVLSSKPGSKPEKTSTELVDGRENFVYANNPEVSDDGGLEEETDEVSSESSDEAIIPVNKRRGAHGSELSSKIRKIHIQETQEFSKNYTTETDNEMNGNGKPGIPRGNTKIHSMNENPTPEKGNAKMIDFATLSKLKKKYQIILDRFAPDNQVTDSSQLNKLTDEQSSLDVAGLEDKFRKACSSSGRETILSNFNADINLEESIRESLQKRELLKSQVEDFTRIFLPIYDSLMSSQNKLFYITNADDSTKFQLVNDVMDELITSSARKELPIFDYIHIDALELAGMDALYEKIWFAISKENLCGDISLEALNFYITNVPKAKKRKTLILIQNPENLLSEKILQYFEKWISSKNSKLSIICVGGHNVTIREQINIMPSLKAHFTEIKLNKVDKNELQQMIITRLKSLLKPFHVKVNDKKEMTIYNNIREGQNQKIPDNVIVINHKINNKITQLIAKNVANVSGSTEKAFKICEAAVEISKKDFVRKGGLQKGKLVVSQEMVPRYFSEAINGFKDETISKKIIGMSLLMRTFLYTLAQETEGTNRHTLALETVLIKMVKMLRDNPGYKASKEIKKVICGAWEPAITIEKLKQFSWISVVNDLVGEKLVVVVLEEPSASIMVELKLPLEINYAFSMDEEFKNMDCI", "UniProt Q04089": "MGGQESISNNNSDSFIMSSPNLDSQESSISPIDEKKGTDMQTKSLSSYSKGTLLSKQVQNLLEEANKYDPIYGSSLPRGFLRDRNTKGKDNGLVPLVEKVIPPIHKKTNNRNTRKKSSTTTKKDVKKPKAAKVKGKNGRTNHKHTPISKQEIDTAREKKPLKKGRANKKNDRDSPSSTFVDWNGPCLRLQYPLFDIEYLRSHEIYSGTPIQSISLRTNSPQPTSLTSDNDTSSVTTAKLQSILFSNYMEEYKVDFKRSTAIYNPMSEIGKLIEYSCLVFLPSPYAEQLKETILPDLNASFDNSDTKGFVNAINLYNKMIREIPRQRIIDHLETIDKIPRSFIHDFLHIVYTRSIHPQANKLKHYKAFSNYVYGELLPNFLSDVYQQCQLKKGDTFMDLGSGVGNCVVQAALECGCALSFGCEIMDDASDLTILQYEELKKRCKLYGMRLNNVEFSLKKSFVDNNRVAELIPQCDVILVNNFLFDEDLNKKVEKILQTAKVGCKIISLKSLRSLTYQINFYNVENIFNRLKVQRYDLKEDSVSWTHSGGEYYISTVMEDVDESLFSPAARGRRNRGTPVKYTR", "UniProt P06700": "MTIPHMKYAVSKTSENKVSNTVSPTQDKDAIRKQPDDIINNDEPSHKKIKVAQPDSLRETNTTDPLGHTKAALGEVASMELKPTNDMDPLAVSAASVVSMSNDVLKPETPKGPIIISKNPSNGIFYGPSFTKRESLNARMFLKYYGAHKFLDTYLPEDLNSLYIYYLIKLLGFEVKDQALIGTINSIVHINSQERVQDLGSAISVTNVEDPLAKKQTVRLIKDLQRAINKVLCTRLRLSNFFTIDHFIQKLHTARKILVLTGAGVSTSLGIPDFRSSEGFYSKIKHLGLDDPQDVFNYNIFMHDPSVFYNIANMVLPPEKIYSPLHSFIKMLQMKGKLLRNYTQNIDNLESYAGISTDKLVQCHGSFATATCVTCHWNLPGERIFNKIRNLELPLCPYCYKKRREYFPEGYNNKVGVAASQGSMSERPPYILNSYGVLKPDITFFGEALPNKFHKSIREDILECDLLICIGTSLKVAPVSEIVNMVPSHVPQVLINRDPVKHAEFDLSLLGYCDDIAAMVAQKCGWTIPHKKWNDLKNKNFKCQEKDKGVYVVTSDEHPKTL"}, "source": "paper PMC9726891", "key": {"[1]": {"biological_target": "T1, Reb1 (endogenously expressed, tag not stated) (S. cerevisiae (endogenous in yeast)) (UniProt P21538)", "T1 sequence": "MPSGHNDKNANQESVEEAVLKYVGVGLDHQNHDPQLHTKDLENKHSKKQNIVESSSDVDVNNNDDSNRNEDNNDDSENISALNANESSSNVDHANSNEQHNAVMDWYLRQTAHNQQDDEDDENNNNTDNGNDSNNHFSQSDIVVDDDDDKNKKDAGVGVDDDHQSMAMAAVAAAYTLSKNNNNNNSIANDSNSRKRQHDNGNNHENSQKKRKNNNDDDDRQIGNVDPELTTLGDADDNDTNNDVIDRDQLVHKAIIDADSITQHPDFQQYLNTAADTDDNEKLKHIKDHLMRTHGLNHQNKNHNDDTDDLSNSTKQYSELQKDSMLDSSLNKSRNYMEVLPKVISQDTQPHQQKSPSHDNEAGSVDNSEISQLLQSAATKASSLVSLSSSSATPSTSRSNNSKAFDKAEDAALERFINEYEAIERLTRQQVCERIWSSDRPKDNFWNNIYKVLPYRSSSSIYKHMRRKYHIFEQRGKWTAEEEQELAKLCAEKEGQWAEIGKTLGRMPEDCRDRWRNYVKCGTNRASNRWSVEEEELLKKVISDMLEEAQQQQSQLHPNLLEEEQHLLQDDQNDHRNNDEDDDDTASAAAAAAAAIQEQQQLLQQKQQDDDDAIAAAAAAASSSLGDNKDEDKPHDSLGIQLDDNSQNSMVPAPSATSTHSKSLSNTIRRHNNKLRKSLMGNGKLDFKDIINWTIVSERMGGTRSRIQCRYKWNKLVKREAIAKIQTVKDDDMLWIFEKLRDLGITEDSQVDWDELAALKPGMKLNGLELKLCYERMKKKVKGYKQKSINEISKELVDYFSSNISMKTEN", "test": "co-IP; Reb1 and Sir2, Sir3, Sir4 (Supplementary Fig. 9e, f); bait and tags not given"}, "[2]": {"biological_target": "T2, tandem affinity purification (TAP)-tagged Reb1 (Reb1-TAP) (S. cerevisiae (endogenous in yeast)) (UniProt P21538)", "T2 sequence": "T1 sequence", "test": "co-IP; Reb1-TAP immunoprecipitated with calmodulin beads from MNase-digested whole cell extract; 10 mM Tris pH 8.0, 150-350 mM NaCl, 2 mM CaCl2, 0.1% NP-40, 4 h at 4 °C"}, "[3]": {"biological_target": "T3, pyruvate kinase Pyk1 (S. cerevisiae (endogenous in yeast)) (UniProt P00549)", "T3 sequence": "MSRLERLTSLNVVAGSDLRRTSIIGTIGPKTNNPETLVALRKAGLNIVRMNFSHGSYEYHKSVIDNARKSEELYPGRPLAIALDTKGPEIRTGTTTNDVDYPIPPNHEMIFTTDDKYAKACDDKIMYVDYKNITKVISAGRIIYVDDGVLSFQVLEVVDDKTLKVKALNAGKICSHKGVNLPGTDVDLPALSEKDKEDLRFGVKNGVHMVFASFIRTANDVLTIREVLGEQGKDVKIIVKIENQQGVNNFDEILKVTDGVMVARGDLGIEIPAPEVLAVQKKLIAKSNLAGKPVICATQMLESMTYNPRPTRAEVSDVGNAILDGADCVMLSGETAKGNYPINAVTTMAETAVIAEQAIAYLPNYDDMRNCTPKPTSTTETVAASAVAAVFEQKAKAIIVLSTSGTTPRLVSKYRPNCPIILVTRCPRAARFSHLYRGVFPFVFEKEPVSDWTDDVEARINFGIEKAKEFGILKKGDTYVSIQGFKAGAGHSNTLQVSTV", "test": "co-IP; endogenous Pyk1 immunoprecipitated with anti-Pyk1 antibody from yeast cell extract"}, "[4]": {"biological_target": "Unmodified H3 (1–23) peptide", "test": "pull-down; 1.0 µg biotinylated histone peptide incubated with 0.5 ml yeast whole cell extract in 50 mM Tris-HCl pH 7.5, 250 mM NaCl, 0.1% NP-40, overnight at 4 °C; Streptavidin beads; immunoblot; only the target purified"}, "[5]": {"biological_target": "T1, Reb1 (endogenously expressed, tag not stated) (S. cerevisiae (endogenous in yeast))", "test": "co-IP; Dot1 and Reb1 (Supplementary Fig. 9d); bait and tags not given"}}, "note": "These are yes or no findings as the source states them, for the method shown. Binding seen in cells or lysates may run through a third protein. Some results given as binding are weak or reduced against the parent protein; the word gives no strength. For some of these results: Where a sequence is shown, tags or fusion partners need not be part of it.", "data": [{"substance": "Sir4 (in yeast cell extract, tag not stated) (from UniProt P11978 1-1358)", "values": [{"measurement": "binding", "setting": "[1]", "result": "no binding"}]}, {"substance": "Sam1 (from UniProt P10659 1-382) (enzyme)", "values": [{"measurement": "binding", "setting": "[2]", "result": "binds"}, {"measurement": "binding", "setting": "[3]", "result": "binds"}]}, {"substance": "Sir3 (in yeast cell extract, tag not stated) (from UniProt P06701 1-978)", "values": [{"measurement": "binding", "setting": "[1]", "result": "no binding"}]}, {"substance": "Dot1 (in yeast cell extract, tag not stated) (from UniProt Q04089 1-582) (enzyme)", "values": [{"measurement": "binding", "setting": "[4]", "result": "binds"}, {"measurement": "binding", "setting": "[5]", "result": "no binding"}]}, {"substance": "Sir2 (in yeast cell extract, tag not stated) (from UniProt P06700 1-562) (enzyme)", "values": [{"measurement": "binding", "setting": "[1]", "result": "no binding"}]}]}
